Structures are written as SMILES. Screen size: about 52,000 compounds; about 4,300 (8.3%) were called active. Rule as the data show it: active = survival mostly below about 52% (no sharp cut-off); inactive = mostly above about 56%. The list shows a part of the results.

The assay deals with DeltatarO mutant. Kind of assay: S. aureus survival, RN4220 and DeltatarO strains – OD600, teichoic acid synthesis inhibitors, primary screen (AID 463173). The following applies: S. aureus RN4220 wild type/DeltatarO growth, OD600, 18 h, hits give low values, screened at 18.75 µg/mL (by protocol).
Turning to `CCOC(=O)c1cnc2c(C)cccc2c1Nc1ccc(OC(C)C)cc1`, the survival is active: 2%. Next, `Cc1ccc(C)c(N2CCN(c3nc4ccc(C(=O)c5ccccc5)cc4n4cnnc34)CC2)c1`: inactive: 79%.

On to `COc1ccccc1CN(Cc1c(Cl)cccc1Cl)S(=O)(=O)c1ccc(Br)cc1`, for which the survival is inactive: 102%. Turning to `Cc1cccc(OCCCn2c(CCNC(=O)C3CCCCC3)nc3ccccc32)c1`, the survival is inactive: 37%. Take `NC(=O)CSc1nc2ccc(NC(=O)COc3ccccc3Cl)cc2s1`: the survival was inactive: 85%. In the case of `Cc1cccc(-n2nc(C)c(C(=O)N3CCN(c4ccccc4)CC3)c2-n2cccc2)c1` it was inactive: 66%; in that of `CS(=O)(=O)N(Cc1ccccc1)c1ccc(C(=O)Nc2ccc(Cl)cc2)cc1`, inactive: 145%; in that of `COc1cc(C(=O)NCC#N)cc(OC)c1OC`, inactive: 101%. In the case of `COc1ccccc1C(=O)Nc1ccc(S(=O)(=O)Nc2ncccn2)cc1` it was inactive: 77%. In the case of `Cc1cc(F)ccc1NC(=O)CCn1nc(C)c(S(=O)(=O)N2CCCCC2)c1C`, the survival was inactive: 88%.

For the compound `Cc1ccc(C)c(N2CCN(C(=O)C(CC(C)C)NS(=O)(=O)c3ccc4nc(C)sc4c3)CC2)c1` (stereo not drawn), the survival is inactive: 85%. In the case of `Cc1cc(C)cc(OCC(=O)N2CCC(c3nc4ccccc4s3)CC2)c1`, the survival was inactive: 85%. In the case of `CCc1cccc(C)c1NC(=O)CSc1nc2c(c(=O)[nH]1)CCC2` it was inactive: 103%; in that of `CCCN1C(=O)C(Cc2nc3ccccc3c(=O)n2-c2ccc(OC)cc2)c2cc(C)ccc21` (stereo not drawn), inactive: 68%.

`O=C(O)CCCC(=O)n1cnc2ccccc21`: the survival is inactive: 87%. For `Cc1cc(C(=O)O)c(CN2CCCC2)o1`, the survival is active: 74%. `CCOc1cc(C2NC(=O)NC(C)=C2C(=O)Nc2ccc(F)cc2)ccc1O` (stereo not drawn): the survival was inactive: 81%. In the case of `Cn1cc(S(=O)(=O)c2cccc(Cl)c2)c(=O)c2cc(F)c(N3CCCCC3)cc21` it was inactive: 76%; in that of `O=C(NCCc1ccc(Cl)cc1)c1ccc(CSCc2cccc(Cl)c2)o1`, inactive: 97%; in that of `Cc1ccc(Cl)cc1NC(=O)c1oc2ccc(S(=O)(=O)N3CCCCCC3)cc2c1C`, inactive: 93%. In the case of `CCN(CC)c1ncnc2ccc(Br)cc12` it was inactive: 112%; in that of `CC(C)C(=O)OCc1cc(=O)n2nc(C3CC3)sc2n1`, inactive: 86%.

As for `O=C(NCc1cccs1)c1c[nH]c2c(F)cccc2c1=O`, the survival is inactive: 90%. As to `CCCCN(C)S(=O)(=O)c1ccc(C(=O)Nc2ccc(-c3nc4ccc(C)cc4s3)cc2)cc1`, the survival was inactive: 95%. In the case of `CCN1CCN(c2oc(/C=C/c3cc(OC)c(OC)c(OC)c3)nc2C#N)CC1` it was inactive: 72%. Next, `S=c1[nH]c2ccc3ccccc3c2[nH]1`: inactive: 78%; `CCc1ccc(C2c3c(oc4cc(C)c(C)cc4c3=O)C(=O)N2c2nc(C)c(C(=O)OC)s2)cc1` (stereo not drawn): inactive: 78%; `COc1cc(OC)c(C2C(C(=O)Nc3ccccc3)=C(C)Nc3ncnn32)cc1OC` (stereo not drawn): inactive: 72%. `COc1ccc(-c2noc(CC(=O)Nc3ccc(C)c(F)c3)n2)cc1`: the survival was inactive: 91%.

For `O=C(NCC(c1ccco1)S(=O)(=O)c1cccs1)c1ccc(Cl)cc1` (stereo not drawn), the survival was inactive: 102%.

Turning to `Cc1cc(C(=O)NCc2ccccc2Cl)c2c(C)nn(-c3cccc(F)c3)c2n1`, the survival was inactive: 68%. With `CCCN(C(=O)Nc1cn(CC(C)C)c(=O)c2ccccc12)c1ccc(F)cc1`, the survival was inactive: 82%. In the case of `O=C(Nc1ccccc1)NC1(C(=O)NCc2ccc3c(c2)OCO3)CCCCC1` it was active: 6%; in that of `CC(=O)N1CCc2c(sc3c2c(=O)n(-c2ccc(C)cc2)c(=O)n3Cc2ccccc2C)C1`, inactive: 126%; in that of `CCCCNC(=O)c1ccc2c(c1)NC(=O)C(CS(=O)(=O)Cc1ccc(C)cc1)N2` (stereo not drawn), inactive: 87%. Turning to `Cc1c(Cl)cccc1NC(=O)Cn1c(=O)n(Cc2nc(-c3ccccc3)no2)c(=O)c2cc3c(cc21)OCO3`, the survival is inactive: 102%. As for `CCc1nn(CC(=O)NCCCc2ccccc2)c(=O)c2cc3ccccc3n12`, the survival is inactive: 90%. In the case of `CCCC(=O)Nc1cccc(-c2cn3c(C)csc3n2)c1` it was active: -5%; in that of `CCc1ccc(CNC(=O)c2cnc3c(C)cccn3c2=O)cc1`, inactive: 80%. As to `Cc1ccc(Nc2cc(C)c(C#N)c3nc4ccccc4n23)c(C)c1`, the survival was active: 38%. With `Cc1c(Cl)cccc1NC(=O)C1CCN(c2nc3ccccc3[nH]2)CC1`, the survival is inactive: 95%. Next, `COc1cc(C2Nc3ccccc3-c3nnc(SCc4ccc(C)cc4)nc3O2)cc(OC)c1O` (stereo not drawn): inactive: 140%; `CC(C)CCNC(=O)C(=O)Nc1c2c(nn1-c1ccc(Cl)cc1)CSC2`: inactive: 86%. Regarding `CCn1c(CN2CCC(C)CC2)nc2cc(NC(=O)c3ccc([N+](=O)[O-])cc3)ccc21`, the survival was inactive: 86%. With `Cc1ccc(-n2nc(-c3ccccc3)c3cnc4cc5c(cc4c32)OCO5)cc1C`, the survival is inactive: 127%. Next, `CC(=O)Nc1cccc(NC(=O)CSc2ccc(-c3sc(-c4ccccc4)nc3C)nn2)c1`: active: -14%; `Cc1cccc(Nc2nnc(-c3ccc(C)c(S(=O)(=O)N4CCN(C)CC4)c3)c3ccccc23)c1`: inactive: 138%.

`Cc1cccc(C(C)C)c1NC(=O)c1ccc2c(c1)CCN2S(C)(=O)=O`: the survival is inactive: 74%. For the compound `COc1ccc(N2CCN(C(=O)c3ccccc3N(C)S(C)(=O)=O)CC2)cc1`, the survival is inactive: 85%. With `Cc1nn2c(=O)cc(COC(=O)c3cccc(NC(=O)c4ccc(F)cc4)c3)nc2s1`, the survival was inactive: 81%.

Turning to `CCOC(=O)Cc1c(C(=O)OCC)nnc2c(-c3ccccc3)c(C)nn12`, the survival is inactive: 75%.

As to `CC(=O)c1ccc(NC(=O)CC2Oc3ccc(C)cc3NC2=O)cc1` (stereo not drawn), the survival was inactive: 85%.

With `COCCNc1oc(-c2ccc(OC)cc2)nc1C#N`, the survival is inactive: 54%.

In the case of `CCOC(=O)c1cccc(NC(=O)N2CC=C(c3c[nH]c4ccccc34)CC2)c1`, the survival was inactive: 83%. In the case of `COc1ccc(OC)c(NC(=O)N2CC3CCCN3c3ccccc32)c1` (stereo not drawn), the survival was inactive: 89%.

Regarding `CCCN1C2CCCC1CC(NC(=O)Nc1ccccc1C(F)(F)F)C2` (stereo not drawn), the survival is inactive: 60%.

For `Cc1cc(Nc2ccc(Br)c(C)c2)n2nc(-c3ccco3)nc2n1`, the survival was active: -5%. In the case of `CCN(CC)C(=O)Cn1c(=O)n(CCc2ccccc2)c(=O)c2ccccc21` it was inactive: 100%.

The record behind these values is PubChem BioAssay AID463173 (ICCB-Longwood Screening Facility, Harvard Medical School, 2010).
